# Data taken from the supplement of paper PMC8728848.
# The other results are listed elsewhere or left out.
# Assays:
# Test in all cases: glycan array binding signal (z-score within array); higher = stronger binding
# Conditions in all cases: glycan notation: IUPAC condensed, linker removed
# [1] = biological target: Gal(b1-4)GlcNAc(b1-2)[Gal(b1-4)GlcNAc(b1-4)]Man(a1-3)[GlcNAc(b1-4)][Gal(b1-4)GlcNAc(b1-2)Man(a1-6)]Man(b1-4)GlcNAc(b1-4)GlcNAc
# How it was run: (§1)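 Columns mapping to the same glycan were averaged after glycan names were converted to IUPAC-condensed notation. The data come from 3228 arrays in the Consortium for Functional Glycomics database, limited to those with an available protein sequence. Binding is reported as a within-array Z-score averaged across arrays of one protein sequence and across linkers.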
# [2] = biological target: Gal(b1-4)GlcNAc(b1-2)[Gal(b1-4)GlcNAc(b1-4)]Man(a1-3)[GlcNAc(b1-4)][Gal(b1-4)GlcNAc(b1-2)[Gal(b1-4)GlcNAc(b1-6)]Man(a1-6)]Man(b1-4)GlcNAc(b1-4)GlcNAc
# How it was run: as §1
# [3] = biological target: Gal(b1-4)GlcNAc(b1-2)[Gal(b1-4)GlcNAc(b1-6)]Man(a1-6)[Gal(b1-4)GlcNAc(b1-2)Man(a1-3)]Man(b1-4)GlcNAc(b1-4)GlcNAc
# How it was run: as §1
# [4] = biological target: Gal(b1-4)GlcNAc(b1-2)[Gal(b1-4)GlcNAc(b1-6)]Man(a1-6)[Gal(b1-4)GlcNAc(b1-2)Man(a1-3)]Man(b1-4)GlcNAc(b1-4)[Fuc(a1-6)]GlcNAc
# How it was run: as §1
# [5] = biological target: Gal(b1-4)GlcNAc(b1-2)[Gal(b1-4)GlcNAc(b1-6)]Man(a1-6)[GlcNAc(b1-4)][Gal(b1-4)GlcNAc(b1-2)Man(a1-3)]Man(b1-4)GlcNAc(b1-4)GlcNAc
# How it was run: as §1
# [6] = biological target: Gal(b1-4)GlcNAc(b1-2)[Gal(b1-4)GlcNAc(b1-6)]Man(a1-6)[GlcNAc(b1-4)][Gal(b1-4)GlcNAc(b1-2)[Gal(b1-4)GlcNAc(b1-4)]Man(a1-3)]Man(b1-4)GlcNAc(b1-4)[Fuc(a1-6)]GlcNAc
# How it was run: as §1
# [7] = biological target: Gal(b1-4)GlcNAc(b1-3)Gal(b1-3)GalNAc
# How it was run: as §1
# [8] = biological target: Gal(b1-4)GlcNAc(b1-3)Gal(b1-3)GlcNAc
# How it was run: as §1
# [9] = biological target: Gal(b1-4)GlcNAc(b1-3)Gal(b1-4)Glc
# How it was run: as §1
# [10] = biological target: Gal(b1-4)GlcNAc(b1-3)Gal(b1-4)GlcNAc
# How it was run: as §1
# [11] = biological target: Gal(b1-4)GlcNAc(b1-3)Gal(b1-4)GlcNAc(b1-2)Man(a1-3)[Gal(b1-4)GlcNAc(b1-3)Gal(b1-4)GlcNAc(b1-2)Man(a1-6)]Man(b1-4)GlcNAc(b1-4)GlcNAc
# How it was run: as §1
# [12] = biological target: Gal(b1-4)GlcNAc(b1-3)Gal(b1-4)GlcNAc(b1-2)Man(a1-3)[Gal(b1-4)GlcNAc(b1-3)Gal(b1-4)GlcNAc(b1-2)Man(a1-6)]Man(b1-4)GlcNAc(b1-4)[Fuc(a1-6)]GlcNAc
# How it was run: as §1
# [13] = biological target: Gal(b1-4)GlcNAc(b1-3)Gal(b1-4)GlcNAc(b1-2)[Gal(b1-4)GlcNAc(b1-3)Gal(b1-4)GlcNAc(b1-6)]Man(a1-6)[Gal(b1-4)GlcNAc(b1-3)Gal(b1-4)GlcNAc(b1-2)Man(a1-3)]Man(b1-4)GlcNAc(b1-4)GlcNAc
# How it was run: as §1
# [14] = biological target: Gal(b1-4)GlcNAc(b1-3)Gal(b1-4)GlcNAc(b1-2)[Gal(b1-4)GlcNAc(b1-3)Gal(b1-4)GlcNAc(b1-6)]Man(a1-6)[Gal(b1-4)GlcNAc(b1-3)Gal(b1-4)GlcNAc(b1-2)Man(a1-3)]Man(b1-4)GlcNAc(b1-4)[Fuc(a1-6)]GlcNAc
# How it was run: as §1
# [15] = biological target: Gal(b1-4)GlcNAc(b1-3)Gal(b1-4)GlcNAc(b1-3)Gal(b1-4)GlcNAc
# How it was run: as §1
# [16] = biological target: Gal(b1-4)GlcNAc(b1-3)Gal(b1-4)GlcNAc(b1-3)Gal(b1-4)GlcNAc(b1-2)Man(a1-3)[Gal(b1-4)GlcNAc(b1-3)Gal(b1-4)GlcNAc(b1-3)Gal(b1-4)GlcNAc(b1-2)Man(a1-6)]Man(b1-4)GlcNAc(b1-4)GlcNAc
# How it was run: as §1
# [17] = biological target: Gal(b1-4)GlcNAc(b1-3)Gal(b1-4)GlcNAc(b1-3)Gal(b1-4)GlcNAc(b1-2)Man(a1-3)[Gal(b1-4)GlcNAc(b1-3)Gal(b1-4)GlcNAc(b1-3)Gal(b1-4)GlcNAc(b1-2)Man(a1-6)]Man(b1-4)GlcNAc(b1-4)[Fuc(a1-6)]GlcNAc
# How it was run: as §1
# [18] = biological target: Gal(b1-4)GlcNAc(b1-3)Gal(b1-4)GlcNAc(b1-3)Gal(b1-4)GlcNAc(b1-2)[Gal(b1-4)GlcNAc(b1-3)Gal(b1-4)GlcNAc(b1-3)Gal(b1-4)GlcNAc(b1-6)]Man(a1-6)[Gal(b1-4)GlcNAc(b1-3)Gal(b1-4)GlcNAc(b1-3)Gal(b1-4)GlcNAc(b1-2)Man(a1-3)]Man(b1-4)GlcNAc(b1-4)[Fuc(a1-6)]GlcNAc
# How it was run: as §1
# [19] = biological target: Gal(b1-4)GlcNAc(b1-3)Gal(b1-4)GlcNAc(b1-3)Gal(b1-4)GlcNAc(b1-3)Gal(b1-4)GlcNAc(b1-2)Man(a1-3)[Gal(b1-4)GlcNAc(b1-3)Gal(b1-4)GlcNAc(b1-3)Gal(b1-4)GlcNAc(b1-3)Gal(b1-4)GlcNAc(b1-2)Man(a1-6)]Man(b1-4)GlcNAc(b1-4)GlcNAc
# How it was run: as §1
binder,measurement,setting,value
SP16664D-bth-476-27-476 (Bacteroides thetaiotaomicron) (protein) DDLEVGKNIDESAYSGIYENNAYLRDGKSNLVSKVVELHGETYATTVKMGLSKTPNTATSAKVKIDAAYLETYNKAHNTDFALYPQDLVTFANEGILTVNANTKSAEVEMTIRAGEGLQEDKTYAIPVAISDQSSDITIKDEDAKHCIYLVKDMRNAGDAYKGEGVMQGYLFFEVNDVNPLNTLSFQLENGKLLWDVVVLFAANINYDAEAGRPRVQCNPNVQYLLDNNETLLQPLRRRGVKVLLGLLGNHDITGLAQLSEQGAKDFAREVAQYCKAYNLDGVNYDDEYSNSPDLSNPSLTNPSTAAAARLCYETKQAMPDKLVTVFDWGQMYGVATVDGVDAKEWIDIVVANYGSAAYPIGQMTKKQCSGISMEFNLGGGGSLSASKAQSMIDGGYGWFMGFAPSPAKYGSVFSRLQGGGEVLYGSNVAAPTIFYKKNDPTPYKYPDDL,glycan array binding signal (z-score),[1],-0.322
same,glycan array binding signal (z-score),[2],-0.399
same,glycan array binding signal (z-score),[3],-0.116
same,glycan array binding signal (z-score),[4],0.634
same,glycan array binding signal (z-score),[5],-0.27
same,glycan array binding signal (z-score),[6],0.181
same,glycan array binding signal (z-score),[7],-0.387
same,glycan array binding signal (z-score),[8],-0.228
same,glycan array binding signal (z-score),[9],-0.062
same,glycan array binding signal (z-score),[10],-0.123
same,glycan array binding signal (z-score),[11],-0.139
same,glycan array binding signal (z-score),[12],-0.031
same,glycan array binding signal (z-score),[13],0.04
same,glycan array binding signal (z-score),[14],0.032
same,glycan array binding signal (z-score),[15],0.004
same,glycan array binding signal (z-score),[16],0.346
same,glycan array binding signal (z-score),[17],0.08
same,glycan array binding signal (z-score),[18],1.01
same,glycan array binding signal (z-score),[19],0.253
